According to patent US10138255B2, “Piperazine derivatives as HIV protease inhibitors” (Merck Sharp & Dohme Corp., priority 2014, dated 2018):
At least one read-out could not be matched to a standard name with certainty.

Tested on: HIV-1 (H9IIIB strain)
Assay: Cell-Based HIV Infection Assay Using a Reporter (MT4-GFP cells)
Details: inflection point (IP) of viral growth inhibition; MT4-GFP cells infected with HIV-1 H9IIIB; 50% normal human serum; mean of at least two independent experiments
Description: Cell-Based HIV Infection Assay Using a Reporter (“Cell-Based”):
MT4-GFP cells contain a stably integrated HIV long terminal repeat promoter directing the transcription of green fluorescent protein (GFP). When HIV infects the cell, GFP is produced and the cell becomes green. MT4-GFP cells (250,000 cells/mL) were bulk-infected with HIV-1 (H9IIIB strain) at low multiplicity of infection (MOI) in RPM 1640 media, supplemented with 10% FBS for 24 h. Cells were then washed once in RPMI 1640 plus 10% FBS and resuspended in RPMI plus 50% normal human serum (NHS). Test compounds were serial-diluted in DMSO using an ECHO liquid dispenser. A control well included a combination of three HIV drugs (an inhibitor of HIV protease, integrase strand transfer and a non-nucleoside reverse transcriptase inhibitor; triple drug). The infected MT4-GFP cells were added to a 384-well poly-D-lysine coated black plate with clear bottom in which the diluted test compounds were placed. The cells were seeded in the plate at 8,000 cells per well and the final DMSO concentration was 0.4%. Infected cells were quantified at both 24 and 48 h post incubation using an Acumen eX3 plate reader. Viral reproductive ratio (R0) was determined using the number of infected cells at 48 h divided by the number of infected cells at 24 h. Percent viral growth inhibition was calculated by [1−(R−Rtripledrug)/(RDMSO−Rtripledrug)]*100. Compound potency inflection point (IP) was determined with use of a 4-parameter dose response curve analysis.
Data shown in the table reflects the mean of at least two independent experiments.

**Q.** How did the “Cell Based IP (50% NHS)” value turn out when `COC(=O)NC(C(=O)Nc1cccc(F)c1CC[C@H]1CN[C@@H]2CCCS(=O)(=O)N1C2)C(c1ccc(F)cc1)c1ccc(C(F)(F)F)cn1` (stereo partly drawn) [Example 216, methyl (2-[(2-{2-[(6R,9S)-2,2-dioxido-2-thia-1,7-diazabicyclo[4.3.1]dec-9-yl]ethyl}-3-fluorophenyl)amino]-1-{(4-fluorophenyl)[5-(trifluoromethyl)pyridin-2-yl]methyl}-2-oxoethyl)carbamate] was run?
**A.** 24 nM

**Q.** How did the “Cell Based IP (50% NHS)” value turn out when `COC1CCCC([C@H](c2ccc(Cl)cc2)[C@H](N)C(=O)Nc2cccc(F)c2CC[C@H]2CNC3CCCS(=O)(=O)N2C3)C1` (stereo partly drawn) [Example 199, (βR)-4-chloro-N-(2-{2-[(9S)-2,2-dioxido-2-thia-1,7-diazabicyclo[4.3.1]dec-9-yl]ethyl}-3-fluorophenyl)-β-(3-methoxycyclohexyl)-L-phenylalaninamide] was run?
**A.** 8.0 nM

**Q.** With `CC[C@H]1C[C@@H]([C@H](c2ccc(F)cc2)[C@H](N)C(=O)Nc2cccc(F)c2CC[C@H]2CN[C@@H]3CCCS(=O)(=O)N2C3)CCO1` [Example 191, (βR)-N-(2-{2-[(6R,9S)-2,2-dioxido-2-thia-1,7-diazabicyclo[4.3.1]dec-9-yl]ethyl}-3-fluorophenyl)-β-[(2S,4S)-2-ethyltetrahydro-2H-pyran-4-yl]-4-fluoro-L-phenylalaninamide] as the molecule, how does the “Cell Based IP (50% NHS)” value read?
**A.** 7.1 nM

**Q.** For `CC(C)C1CC([C@H](c2ccc(Cl)cc2)[C@H](N)C(=O)Nc2cccc(F)c2CCC2CNC3CCCS(=O)(=O)N2C3)CCO1` (stereo partly drawn) [Example 134, (βR)-4-chloro-N-{2-[2-(2,2-dioxido-2-thia-1,7-diazabicyclo[4.3.1]dec-9-yl)ethyl]-3-fluorophenyl}-β-[2-(1-methylethyl)tetrahydro-2H-pyran-4-yl]-L-phenylalaninamide], which “Cell Based IP (50% NHS)” value is on record?
**A.** 77 nM

**Q.** Which “Cell Based IP (50% NHS)” value does the source give for `CC[C@H]1C[C@@H]([C@H](c2ccc(F)cc2)[C@H](NC(=O)OC)C(=O)Nc2cccc(F)c2CC[C@H]2CN[C@@H]3CCCS(=O)(=O)N2C3)CCO1` [Example 190, methyl {(1S)-2-[(2-{2-[(6R,9S)-2,2-dioxido-2-thia-1,7-diazabicyclo[4.3.1]dec-9-yl]ethyl}-3-fluorophenyl)amino]-1-[(R)-[(2S,4S)-2-ethyltetrahydro-2H-pyran-4-yl](4-fluorophenyl)methyl]-2-oxoethyl}carbamate] here?
**A.** 41 nM

**Q.** For `CC(C)C1CC([C@H](c2ccc(Cl)cc2)[C@H](N)C(=O)Nc2cccc(F)c2CCC2CNC3CCCS(=O)(=O)N2C3)CCO1` (stereo partly drawn) [Example 133, (βR)-4-chloro-N-{2-[2-(2,2-dioxido-2-thia-1,7-diazabicyclo[4.3.1]dec-9-yl)ethyl]-3-fluorophenyl}-β-[2-(1-methylethyl)tetrahydro-2H-pyran-4-yl]-L-phenylalaninamide], which “Cell Based IP (50% NHS)” value is on record?
**A.** 83 nM

**Q.** `N[C@H](C(=O)Nc1cccc(F)c1CC[C@H]1CN[C@@H]2CCCS(=O)(=O)N1C2)C(c1ccc(F)cc1)c1ccc(C(F)(F)F)cn1` (stereo partly drawn) [Example 209, N-(2-{2-[(6R,9S)-2,2-dioxido-2-thia-1,7-diazabicyclo[4.3.1]dec-9-yl]ethyl}-3-fluorophenyl)-4-fluoro-β-[5-(trifluoromethyl)pyridin-2-yl]phenylalaninamide] was tested. Which “Cell Based IP (50% NHS)” value did it give?
**A.** 48 nM

**Q.** How did the “Cell Based IP (50% NHS)” value turn out when `COC(=O)N[C@H](C(=O)Nc1cccc(F)c1CCC1CNC2CCCS(=O)(=O)N1C2)[C@@H](c1ccc(Cl)cc1)C1CCOC(C(C)C)C1` (stereo partly drawn) [Example 130, methyl {(1S,2R)-2-(4-chlorophenyl)-1-({2-[2-(2,2-dioxido-2-thia-1,7-diazabicyclo[4.3.1]dec-9-yl)ethyl]-3-fluorophenyl}carbamoyl)-2-[2-(1-methylethyl)tetrahydro-2H-pyran-4-yl]ethyl}carbamate] was run?
**A.** 8.2 nM

**Q.** `CC1CC[C@@H]2CN([C@@H](CCc3c(F)cccc3NC(=O)[C@@H](N)[C@@H](c3ccc(F)cc3)C3C[C@@H](C)O[C@@H](C)C3)CN2)S1(=O)=O` (stereo partly drawn) [Example 111, (βR)-β-[(2R,6S)-2,6-dimethyltelrahydro-2H-pyran-4-yl]-4-fluoro-N-(3-fluoro-2-{2-[(6R,9S)-3-methyl-2,2-dioxido-2-thia-1,7-diazabicyclo[4.3.1]dec-9-yl]ethyl}phenyl)-L-phenylalaninamide] was tested. Which “Cell Based IP (50% NHS)” value did it give?
**A.** 28 nM

**Q.** `CC(C)C1CC([C@H](c2ccc(Cl)cc2)[C@H](N)C(=O)Nc2cccc(F)c2CCC2CNC3CCCS(=O)(=O)N2C3)CCO1` (stereo partly drawn) [Example 127, (βR)-4-chloro-N-{2-[2-(2,2-dioxido-2-thia-1,7-diazabicyclo[4.3.1]dec-9-yl)ethyl]-3-fluorophenyl}-β-[2-(1-methylethyl)tetrahydro-2H-pyran-4-yl]-L-phenylalaninamide] was tested. Which “Cell Based IP (50% NHS)” value did it give?
**A.** 27 nM

**Q.** For `CC[C@H]1C[C@@H]([C@H](c2ccc(F)cc2)[C@H](NC(=O)OC)C(=O)Nc2cccc(F)c2CC[C@H]2CN[C@@H]3CCCS(=O)(=O)N2C3)CCO1` [Example 192, methyl {(1S)-2-[(2-{2-[(6R,9S)-2,2-dioxido-2-thia-1,7-diazabicyclo[4.3.1]dec-9-yl]ethyl}-3-fluorophenyl)amino]-1-[(R)-[(2S,4S)-2-ethyltetrahydro-2H-pyran-4-yl](4-fluorophenyl)methyl]-2-oxoethyl}carbamate], which “Cell Based IP (50% NHS)” value is on record?
**A.** 15 nM

**Q.** With `COC(=O)N[C@H](C(=O)Nc1cccc(F)c1CC[C@H]1CN[C@@H]2CCCS(=O)(=O)N1C2)[C@@H](c1ccc(F)cc1)C1CCCCO1` (stereo partly drawn) [Example 115, methyl {(1S)-2-[(2-{2-[(6R,9S)-2,2-dioxido-2-thia-1,7-diazabicyclo[4.3.1]dec-9-yl]ethyl}-3-fluorophenyl)amino]-1-[(R)-(4-fluorophenyl)(tetrahydro-2H-pyran-2-yl)methyl]-2-oxoethyl}carbamate] as the molecule, how does the “Cell Based IP (50% NHS)” value read?
**A.** 190 nM

**Q.** How did the “Cell Based IP (50% NHS)” value turn out when `COC1CCCC([C@H](c2ccc(Cl)cc2)[C@H](N)C(=O)Nc2cccc(F)c2CC[C@H]2CNC3CCCS(=O)(=O)N2C3)C1` (stereo partly drawn) [Example 198, (βR)-4-chloro-N-(2-{2-[(9S)-2,2-dioxido-2-thia-1,7-diazabicyclo[4.3.1]dec-9-yl]ethyl}-3-fluorophenyl)-β-(3-methoxycyclohexyl)-L-phenylalaninamide] was run?
**A.** 48 nM

**Q.** `COC(=O)NC(C(=O)Nc1cccc(F)c1CC[C@H]1CN[C@@H]2CCCS(=O)(=O)N1C2)C(c1ccc(F)cc1)c1ccc(C(F)(F)F)cn1` (stereo partly drawn) [Example 218, methyl (2-[(2-{2-[(6R,9S)-2,2-dioxido-2-thia-1,7-diazabicyclo[4.3.1]dec-9-yl]ethyl}-3-fluorophenyl)amino]-1-{(4-fluorophenyl)[5-(trifluoromethyl)pyridin-2-yl]methyl}-2-oxoethyl)carbamate] was tested. Which “Cell Based IP (50% NHS)” value did it give?
**A.** 560 nM

**Q.** How did the “Cell Based IP (50% NHS)” value turn out when `N[C@H](C(=O)Nc1cccc(F)c1CCC1CNC2CCCS(=O)(=O)N1C2)[C@H](CCC1CCCCO1)c1ccc(Cl)cc1` (stereo partly drawn) [Example 152, (βR)-4-chloro-N-{2-[2-(2,2-dioxido-2-thia-1,7-diazabicyclo[4.3.1]dec-9-yl)ethyl]-3-fluorophenyl}-β-[2-(tetrahydro-2H-pyran-2-yl)ethyl]-L-phenylalaninamide] was run?
**A.** 27 nM

**Q.** How did the “Cell Based IP (50% NHS)” value turn out when `COC(=O)N[C@H](C(=O)Nc1cccc(F)c1CCC1CNC2CCCS(=O)(=O)N1C2)[C@@H](c1ccc(Cl)cc1)C1CCOC(C(C)C)C1` (stereo partly drawn) [Example 135, methyl {(1S,2R)-2-(4-chlorophenyl)-1-({2-[2-(2,2-dioxido-2-thia-1,7-diazabicyclo[4.3.1]dec-9-yl)ethyl]-3-fluorophenyl}carbamoyl)-2-[2-(1-methylethyl)tetrahydro-2H-pyran-4-yl]ethyl}carbamate] was run?
**A.** 100 nM

**Q.** How did the “Cell Based IP (50% NHS)” value turn out when `CC[C@H]1C[C@@H]([C@H](c2ccc(F)cc2)[C@H](N)C(=O)Nc2cccc(F)c2CC[C@H]2CN[C@@H]3CCCS(=O)(=O)N2C3)CCO1` [Example 193, (βR)-N-(2-{2-[(6R,9S)-2,2-dioxido-2-thia-1,7-diazabicyclo[4.3.1]dec-9-yl]ethyl}-3-fluorophenyl)-β-[(2S,4S)-2-ethyltetrahydro-2H-pyran-4-yl]-4-fluoro-L-phenylalaninamide] was run?
**A.** 20 nM

**Q.** `N[C@H](C(=O)Nc1cccc(F)c1CC[C@H]1CN[C@@H]2CCCS(=O)(=O)N1C2)[C@@H](c1ccc(F)cc1)C1CCCCO1` (stereo partly drawn) [Example 119, (βR)-N-(2-{2-[(6R,9S)-2,2-dioxido-2-thia-1,7-diazabicyclo[4.3.1]dec-9-yl]ethyl}-3-fluorophenyl)-4-fluoro-β-(tetrahydro-2H-pyran-2-yl)-L-phenylalaninamide] was tested. Which “Cell Based IP (50% NHS)” value did it give?
**A.** 180 nM

**Q.** With `COCC(CCCF)(c1ccc(F)cc1)[C@H](NC(=O)OC)C(=O)Nc1cccc(F)c1CC[C@H]1CNC2CCCS(=O)(=O)N1C2` (stereo partly drawn) [Example 141, methyl [(1S)-1-[(2-{2-[(9S)-2,2-dioxido-2-thia-1,7-diazabicyclo[4.3.1]dec-9-yl]ethyl}-3-fluorophenyl)carbamoyl]-5-fluoro-2-(4-fluorophenyl)-2-(methoxymethyl)pentyl]carbamate] as the molecule, how does the “Cell Based IP (50% NHS)” value read?
**A.** 690 nM

**Q.** For `COC(=O)N[C@H](C(=O)Nc1cccc(F)c1CCC1CNC2CCCS(=O)(=O)N1C2)[C@H](CCC1CCCCO1)c1ccc(Cl)cc1` (stereo partly drawn) [Example 154, methyl [(1S,2R)-2-(4-chlorophenyl)-1-({2-[2-(2,2-dioxido-2-thia-1,7-diazabicyclo[4.3.1]dec-9-yl)ethyl]-3-fluorophenyl}carbamoyl)-4-(tetrahydro-2H-pyran-2-yl)butyl]carbamate], which “Cell Based IP (50% NHS)” value is on record?
**A.** 8.8 nM
